Results published in patent US20230159453A1 (COCRYSTAL PHARMA, INC., priority 2020, published 2023).

Each compound was assayed against Noro protease (Norovirus, UniProt Q83883) (assay: Norovirus protease inhibition assay (Noro-Norwalk FRET protease assay)). Settings: IC50 (μM), peptide substrate 10 μM, 90 minutes at 37° C., compounds 200 μM to 10.2 nM.
Compound CC(C)CN1C(=O)N[C@@H](C[C@@H]2CCNC2=O)C(O)N1C(=O)OCc1ccccc1 (stereo partly drawn) [Compound C129, Benzyl (5S)-6-hydroxy-2-isobutyl-3-oxo-5-(((S)-2-oxopyrrolidin-3-yl)methyl)-1,2,4-triazinane-1-carboxylate] has an IC50 greater than 200 µM. CC(C)(c1cccc(Cl)c1)C(OC(=O)N[C@@H](CC1CCCCC1)C(=O)N[C@@H](C[C@@H]1CCNC1=O)C(=O)C(N)=O)c1ccc2c(c1)CCC2 (stereo partly drawn) [Compound C131, 2-(3-Chlorophenyl)-1-(2,3-dihydro-1H-inden-5-yl)-2-methylpropyl ((S)-1-(((S)-4-amino-3,4-dioxo-1-((S)-2-oxopyrrolidin-3-yl)butan-2-yl)amino)-3-cyclohexyl-1-oxopropan-2-yl)carbamate] was tested, and the IC50 was 193 µM. Work on CC(C)(c1cccc(Cl)c1)C(OC(=O)N[C@@H](CC1CCCCC1)C(=O)N[C@H](C=O)C[C@@H]1CCNC1=O)c1ccc2c(c1)CCC2 (stereo partly drawn) [Compound C132, 2-(3-Chlorophenyl)-1-(2,3-dihydro-1H-inden-5-yl)-2-methylpropyl ((S)-3-cyclohexyl-1-oxo-1-(((S)-1-oxo-3-((S)-2-oxopyrrolidin-3-yl)propan-2-yl)amino)propan-2-yl)carbamate] yielded an IC50 of 6 µM. In the case of COc1cccc2[nH]c(C(=O)N[C@@H](CC3CCCCC3)C(=O)NC(C=O)CC3CC4(CCN(C(C)=O)CC4)NC3=O)cc12 (stereo partly drawn) [Compound C133, N-((2S)-1-((1-(8-acetyl-2-oxo-1,8-diazaspiro[4.5]decan-3-yl)-3-oxopropan-2-yl)amino)-3-cyclohexyl-1-oxopropan-2-yl)-4-methoxy-1H-indole-2-carboxamide], the IC50 is reported as 0.743 µM. CC(C)(c1cccc(Cl)c1)C(OC(=O)N[C@@H](CC1CCCCC1)C(=O)N[C@@H](C[C@@H]1CCNC1=O)C(=O)C(N)=O)c1ccc(Cl)cc1 (stereo partly drawn) [Compound C134, 2-(3-Chlorophenyl)-1-(4-chlorophenyl)-2-methylpropyl ((S)-1-(((S)-4-amino-3,4-dioxo-1-((S)-2-oxopyrrolidin-3-yl)butan-2-yl)amino)-3-cyclohexyl-1-oxopropan-2-yl)carbamate] showed an IC50 of 171 µM. With CC(C)(c1cccc(Cl)c1)C(OC(=O)N[C@@H](CC1CCCCC1)C(=O)N[C@@H](C[C@@H]1CCNC1=O)C(=O)C(N)=O)c1ccc(F)cc1 (stereo partly drawn) [Compound C135, 2-(3-Chlorophenyl)-1-(4-fluorophenyl)-2-methylpropyl ((S)-1-(((S)-4-amino-3,4-dioxo-1-((S)-2-oxopyrrolidin-3-yl)butan-2-yl)amino)-3-cyclohexyl-1-oxopropan-2-yl) carbamate] the IC50 was 192 µM. For Cc1cccc(C(OC(=O)N[C@@H](CC2CCCCC2)C(=O)N[C@H](C=O)C[C@@H]2CCNC2=O)C(C)(C)c2cccc(Cl)c2)c1 (stereo partly drawn) [Compound C136, 2-(3-Chlorophenyl)-2-methyl-1-(m-tolyl) propyl ((S)-3-cyclohexyl-1-oxo-1-(((S)-1-oxo-3-((S)-2-oxopyrrolidin-3-yl)propan-2-yl)amino)propan-2-yl) carbamate], the IC50 was 3.2 µM. With CC(C)(c1cccc(Cl)c1)C(OC(=O)N[C@@H](CC1CCCCC1)C(=O)N[C@H](C=O)C[C@@H]1CCNC1=O)c1ccc(F)cc1 (stereo partly drawn) [Compound C137, 2-(3-Chlorophenyl)-1-(4-fluorophenyl)-2-methylpropyl ((S)-3-cyclohexyl-1-oxo-1-(((S)-1-oxo-3-((S)-2-oxopyrrolidin-3-yl)propan-2-yl)amino)propan-2-yl) carbamate] the IC50 was 9.9 µM. Compound CC(C)C(=O)N1CCC2(CC1)CC(CC(NC(=O)[C@H](CC1CCCCC1)NC(=O)c1cc3ccccc3[nH]1)C(=O)C(N)=O)C(=O)N2 (stereo partly drawn) [Compound C138, N-((2S)-1-((4-amino-1-(8-isobutyryl-2-oxo-1,8-diazaspiro[4.5]decan-3-yl)-3,4-dioxobutan-2-yl)amino)-3-cyclohexyl-1-oxopropan-2-yl)-1H-indole-2-carboxamide] has an IC50 of 92.9 µM. CC(C)(C1CCCCC1)C(NC(=O)OCc1ccccc1)C(=O)N[C@H](C=O)C[C@@H]1CCNC1=O (stereo partly drawn) [Compound C140, Benzyl (3-cyclohexyl-3-methyl-1-oxo-1-(((S)-1-oxo-3-((S)-2-oxopyrrolidin-3-yl)propan-2-yl)amino)butan-2-yl)carbamate] showed an IC50 of 76 µM. CC(=O)N1CCC2(CC1)CC(CC(C=O)NC(=O)[C@H](CC1CCCCC1)NC(=O)c1cc3cc(Cl)ccc3[nH]1)C(=O)N2 (stereo partly drawn) [Compound C141, N-((2S)-1-((1-(8-acetyl-2-oxo-1,8-diazaspiro[4.5]decan-3-yl)-3-oxopropan-2-yl)amino)-3-cyclohexyl-1-oxopropan-2-yl)-5-chloro-1H-indole-2-carboxamide] was tested, and the IC50 was 9.6 µM. CC(C)(c1cccc(Cl)c1)C(OC(=O)N[C@@H](CC1CCCCC1)C(=O)N[C@H](C=O)C[C@@H]1CCNC1=O)c1ccc(Cl)cc1 (stereo partly drawn) [Compound C143, 2-(3-Chlorophenyl)-1-(4-chlorophenyl)-2-methylpropyl ((S)-3-cyclohexyl-1-oxo-1-(((S)-1-oxo-3-((S)-2-oxopyrrolidin-3-yl)propan-2-yl)amino)propan-2-yl) carbamate] showed an IC50 of 3.7 µM. CC(C)(c1cccc(Cl)c1)C(OC(=O)N[C@@H](CC1CCCCC1)C(=O)N[C@@H](C[C@@H]1CCNC1=O)C(=O)C(=O)NC1CC1)c1ccc(F)cc1 (stereo partly drawn) [Compound C144, 2-(3-Chlorophenyl)-1-(4-fluorophenyl)-2-methylpropyl ((S)-3-cyclohexyl-1-(((S)-4-(cyclopropylamino)-3,4-dioxo-1-((S)-2-oxopyrrolidin-3-yl)butan-2-yl)amino)-1-oxopropan-2-yl) carbamate] gave an IC50 of 140 µM. With CC(C)(c1cccc(Cl)c1)C(OC(=O)N[C@@H](CC1CCCCC1)C(=O)N[C@@H](C[C@@H]1CCNC1=O)C(=O)C(=O)NC1CC1)c1ccc(Cl)cc1 (stereo partly drawn) [Compound C145, 2-(3-Chlorophenyl)-1-(4-chlorophenyl)-2-methylpropyl ((S)-3-cyclohexyl-1-(((S)-4-(cyclopropylamino)-3,4-dioxo-1-((S)-2-oxopyrrolidin-3-yl)butan-2-yl)amino)-1-oxopropan-2-yl) carbamate] the IC50 was greater than 200 µM. O=C(N[C@@H](Cc1ccccc1)C(=O)N[C@@H](C[C@@H]1CCNC1=O)C(=O)C(=O)NC1CC1)OC1CCCC1Cc1cccc(Cl)c1 (stereo partly drawn) [Compound C146] gave an IC50 greater than 200 µM. CC(C)C[C@H](NC(=O)OC(Cc1cccc(Cl)c1)c1ccccc1)C(=O)N[C@@H](C[C@@H]1CCNC1=O)C(=O)C(=O)NC1CC1 (stereo partly drawn) [Compound C147, 2-(3-Chlorophenyl)-1-phenylethyl ((S)-1-(((S)-4-(cyclopropylamino)-3,4-dioxo-1-((S)-2-oxopyrrolidin-3-yl)butan-2-yl)amino)-4-methyl-1-oxopentan-2-yl) carbamate] was tested, and the IC50 was greater than 200 µM. CC(C)(c1cccc(Cl)c1)C(OC(=O)N[C@@H](CC1CCCCC1)C(=O)N[C@@H](C[C@@H]1CCNC1=O)C(=O)C(=O)NC1CC1)c1ccccc1 (stereo partly drawn) [Compound C148, 2-(3-Chlorophenyl)-2-methyl-1-phenylpropyl ((S)-3-cyclohexyl-1-(((S)-4-(cyclopropylamino)-3,4-dioxo-1-((S)-2-oxopyrrolidin-3-yl)butan-2-yl)amino)-1-oxopropan-2-yl)carbamate] was tested, and the IC50 was 58.7 µM. For O=C(N[C@@H](CC1CCCCC1)C(=O)N[C@@H](C[C@H]1CC2(CCCCC2)NC1=O)C(=O)C(=O)NC1CC1)OCc1cccc(Cl)c1 [Compound C149, 3-Chlorobenzyl ((S)-3-cyclohexyl-1-(((S)-4-(cyclopropylamino)-3,4-dioxo-1-((S)-2-oxo-1-azaspiro[4.5]decan-3-yl)butan-2-yl)amino)-1-oxopropan-2-yl)carbamate], the IC50 was greater than 200 µM. For CC(C)(c1cccc(Cl)c1)C(OC(=O)N[C@@H](CC1CCCCC1)C(=O)N[C@@H](C[C@@H]1CCNC1=O)C(=O)C(=O)N1CCCC1)c1ccc2ccccc2c1 (stereo partly drawn) [Compound C150, 2-(3-Chlorophenyl)-2-methyl-1-(naphthalen-2-yl)propyl ((S)-3-cyclohexyl-1-(((S)-3,4-dioxo-1-((S)-2-oxopyrrolidin-3-yl)-4-(pyrrolidin-1-yl)butan-2-yl)amino)-1-oxopropan-2-yl)carbamate], the IC50 was greater than 200 µM. O=C(N[C@@H](CC1CCCCC1)C(=O)N[C@@H](C[C@@H]1CCNC1=O)C(=O)C(=O)NC1CC1)OC1CCCC1Cc1cccc(Cl)c1 (stereo partly drawn) [Compound C151, 2-(3-Chlorobenzyl)cyclopentyl ((S)-3-cyclohexyl-1-(((S)-4-(cyclopropylamino)-3,4-dioxo-1-((S)-2-oxopyrrolidin-3-yl)butan-2-yl)amino)-1-oxopropan-2-yl)carbamate] gave an IC50 of 131 µM. For CC(C)C[C@H](NC(=O)OC1CCCC1Cc1cccc(Cl)c1)C(=O)N[C@H](C=O)C[C@@H]1CCNC1=O (stereo partly drawn) [Compound C152, 2-(3-chlorobenzyl)cyclopentyl ((S)-4-methyl-1-oxo-1-(((S)-1-oxo-3-((S)-2-oxopyrrolidin-3-yl)propan-2-yl)amino)pentan-2-yl)carbamate], the IC50 was 2.9 µM. In the case of O=C(N[C@@H](CC1CCCCC1)C(=O)NC(CC1CC2(CCCCC2)NC1=O)C(=O)C(=O)NC1CC1)OC(Cc1cccc(Cl)c1)c1ccccc1 (stereo partly drawn) [Compound C153, 2-(3-Chlorophenyl)-1-phenylethyl ((2S)-3-cyclohexyl-1-((4-(cyclopropylamino)-3,4-dioxo-1-(2-oxo-1-azaspiro[4.5]decan-3-yl)butan-2-yl)amino)-1-oxopropan-2-yl)carbamate], the IC50 is reported as greater than 200 µM. Work on O=C(N[C@@H](CC1CCCCC1)C(=O)N[C@@H](C[C@@H]1CCNC1=O)C(=O)C(=O)NC1CC1)OCc1cccc(Cl)c1 [Compound C154, 3-Chlorobenzyl ((S)-3-cyclohexyl-1-(((S)-4-(cyclopropylamino)-3,4-dioxo-1-((S)-2-oxopyrrolidin-3-yl)butan-2-yl)amino)-1-oxopropan-2-yl)carbamate] yielded an IC50 of 76.1 µM. CC1(C)CC(CC(NC(=O)[C@H](CC2CCCCC2)NC(=O)OC(Cc2cccc(Cl)c2)c2ccccc2)C(=O)C(=O)NC2CC2)C(=O)N1 (stereo partly drawn) [Compound C155, 2-(3-Chlorophenyl)-1-phenylethyl ((2S)-3-cyclohexyl-1-((4-(cyclopropylamino)-1-(5,5-dimethyl-2-oxopyrrolidin-3-yl)-3,4-dioxobutan-2-yl)amino)-1-oxopropan-2-yl) carbamate] gave an IC50 of 86.4 µM.
